Results taken from patent publication US20230407304A1, “USE OF MICRORNA INHIBITION TO PREVENT AND TREAT OSTEOARTHRITIS AND OTHER INFLAMMATORY DISEASES” (VIRGINIA COMMONWEALTH UNIVERSITY, priority 2020, published 2023).

System: resting zone and growth zone chondrocytes
Assay: microRNA transfection of costochondral resting zone and growth zone chondrocytes
Settings: transfected costochondral resting zone and growth zone chondrocytes; preliminary testing

miR-122: mirVana miRNA mimic rno-miR-122-5p; UGGAGUGUGACAAUGGUGUUUG (UGGAGUGUGACAAUGGUGUUUG; listed as RNA, chemistry not given here)
proliferation: increase in proliferation in both the resting zone and growth zone chondrocytes
